Source: PMC3929961 (Molecular cell, 2013)

B1: Escherichia coli DnaB S36R/I85R (constricted double-arginine mutant) (enzyme)
chain: not shown
B2: Escherichia coli DnaB T86C/A121C, oxidized (dilated mutant) (enzyme)
chain: not shown
modifications: disulfide bonds between the introduced cysteines at 86 and 121 (oxidized)

Biological target: the molecule itself
Test: negative-stain EM

| Protein | binding result |
| --- | --- |
| B1 | binds |
| B2 | binds |
